Measured values as given in the supplement of paper PMC3334620.
The full ranking holds about 33,000 sequences; the median of “E-score (-0.5 to 0.5)” is about -0.016, and the highest 2% start at about 0.31. Some of the results follow.

Target: Cst6 (UniProt P40535)
Assay: PBM E-score (8-mer binding enrichment) (E-score (-0.5 to 0.5)); higher = stronger / more preferred TF binding; most listed sequences are background and not binding sites
Settings: protein concentration: 200 nM; construct: GST-DNA-binding domain
Summary of the method: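 Detection of bound protein used fluorescent anti-GST, with scans normalised by masliner. The proteins were GST-tagged yeast transcription factors applied at about 100-200 nM to universal all-10-mer Agilent arrays made double-stranded by primer extension. Each ungapped eight-base word, pooled with its reverse complement, was scored with an E-score from the Universal PBM Analysis Suite.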

Row | Sequence | PBM E-score
1 | CCCATCGC | -0.184
2 | GTTTCTTA | 0.13
3 | GAATTACA | 0.0806
4 | GCGGGAAA | 0.068
5 | ATGTCGGA | -0.155
6 | GGCTGAAA | 0.0421
7 | CTCTCGCC | -0.249
8 | AGATCGAA | 0.164
9 | TCTAGAGA | -0.322
10 | CGTATTAG | 0.239
11 | AAAAGGTT | 0.00471
12 | ATTCATCC | 0.0489
13 | AGATAGTC | -0.147
14 | CCCTGAGG | -0.313
15 | CCATAATA | 0.114
16 | CAGTGATC | 0.0796
17 | CACACGTA | 0.0952
18 | CCGTTGCG | 0.0674
19 | CGGAGGGA | -0.377
20 | GAGAAACA | 0.0998
21 | GAGTGTGA | 0.146
22 | CGGCCAAC | -0.16
23 | ATCCCTAA | -0.28
24 | GCAGCGGC | -0.00681
25 | AAAGCCGC | 0.183

Row | Sequence | PBM E-score
26 | ACCGTCCT | -0.254
27 | AAATTGGA | 0.113
28 | ACCAGGTA | -0.29
29 | AACGATTG | 0.0587
30 | AGGTAGTG | 0.0524
31 | CCTTGGAG | -0.0349
32 | ACGGTTAT | -0.0415
33 | CAATGAGA | -0.0451
34 | CGACTCGA | -0.226
35 | AAATGAAA | 0.322
36 | AGGCTTAA | -0.0613
37 | CGTCGGAA | 0.0694
38 | CGCAAAGC | -0.0939
39 | ACGAGGGA | -0.154
40 | CTCCGAAA | -0.0868
41 | GAGATGGA | -0.194
42 | CAAGAACA | 0.053
43 | ATCTCCGC | 0.0238
44 | GGTATGTA | 0.0278
45 | CCACTTGC | -0.181
46 | ACCCATCT | -0.0183
47 | CCGCGTTA | 0.134
48 | ATCCAGTG | 0.103
49 | GCGCTCGA | -0.0995
50 | TAATTCTA | 0.157

Row | Sequence | PBM E-score
51 | CTCCTGGA | -0.315
52 | GCCGGACA | 0.0223
53 | ACGTCGGG | -0.168
54 | GATTAGGA | 0.0224
55 | CTCAGGAA | -0.163
56 | AGTTTAAG | -0.0158
57 | CTGAGACA | -0.202
58 | TTAAGCAA | 0.0737
59 | AGGAACCT | -0.131
60 | ATGTTATA | 0.125
61 | ATAGGCAA | 0.0135
62 | ACTCGCTC | -0.159
63 | GACTGTGA | 0.0621
64 | AGCCCATA | -0.149
65 | CTAGATGC | -0.0973
66 | AGGATTCC | -0.189
67 | GGCCGCCA | -0.246
68 | CCATCTCC | -0.0491
69 | AGCTCTTA | -0.022
70 | TCGTCGCA | 0.0405
71 | CGGAAAGA | -0.0305
72 | GAGCTGCC | -0.222
73 | CCAAACTA | 0.0704
74 | AACGAACT | -0.00871
75 | GACACTGC | -0.0605

Row | Sequence | PBM E-score
76 | CCATAACC | -0.191
77 | CACAATCC | 0.0228
78 | AAGGAGCA | -0.141
79 | CTCGACAG | -0.272
80 | ATTTTTAG | -0.00122
81 | ACTCACGA | -0.053
82 | CTGGTGTC | -0.119
83 | AATCTCAT | 0.046
84 | CTAGGGGA | -0.439
85 | CAGTCACA | 0.0928
86 | CCGTCTGC | -0.0111
87 | AGCCAAAT | -0.0457
88 | AAATGTCG | 0.113
89 | TATTACAA | 0.193
90 | ACAACGAG | 0.0817
91 | ATGCGGTA | 0.0106
92 | TAGAACTA | 0.0599
93 | CGGCAATA | 0.189
94 | AGCCAGGC | -0.062
95 | CCTACGTA | 0.297
96 | AAATGGCG | 0.142
97 | CTGGATCA | -0.0505
98 | CGAATTCA | 0.109
99 | TGATCACA | 0.0749
100 | AGCAATGA | 0.182

Row | Sequence | PBM E-score
101 | GGAGTTCA | -0.103
102 | AGCAACGG | -0.0269
103 | ATGAGGCG | -0.0116
104 | ATCGGTTG | -0.118
105 | ACGATAGT | 0.235
106 | CTGGGGGC | -0.374
107 | AGCGCAGG | -0.213
108 | CGATCACG | 0.175
109 | CGGCCACG | -0.124
110 | CGCGAAGC | 0.0818
111 | ACAGTCTC | -0.183
112 | CGGACTAC | -0.121
113 | CAGCAGGC | -0.109
114 | ACTTAGAG | -0.0632
115 | GCACCTTA | -0.103
116 | CAGGATTC | 0.0383
117 | GGAATTGA | 0.0716
118 | ACTAATGA | 0.202
119 | TCCGCTCA | -0.185
120 | ATTGAAAC | 0.194
121 | GGGTTACA | 0.126
122 | ACGTATTA | 0.33
123 | CACTCGTA | -0.11
124 | ATCCTACC | -0.175
125 | CTCGCAGA | -0.138

Row | Sequence | PBM E-score
126 | AGCCGGTG | -0.093
127 | GAGGGTAC | -0.281
128 | AGGTGATC | 0.167
129 | ACGTCCAT | 0.169
130 | ACTTCCGG | -0.117
131 | CAGCGGTC | -0.259
132 | AAGGGAGC | -0.353
133 | ACCTGAAA | 0.12
134 | AAGCATGT | -0.00536
135 | GATAAAGC | 0.0878
136 | CCCAGTCA | -0.272
137 | CCGGATCC | -0.199
138 | ACCTGACA | 0.0839
139 | GGGTGTAC | -0.185
140 | ATTACTGG | -0.0944
141 | ACTATGTG | -0.00983
142 | GTAGTCGA | 0.002
143 | AGTACATG | 0.0645
144 | CCGGATGA | -0.0384
145 | AAGCGTGA | 0.141
146 | AGCAAGCC | -0.257
147 | CCTCGACC | -0.19
148 | CTCAGCGA | -0.0409
149 | CCACCCGG | -0.285
150 | AACAAACT | 0.187

Row | Sequence | PBM E-score
151 | ACTCAAAG | -0.0697
152 | CAAACGAA | 0.137
153 | AGTGGTCA | -0.0545
154 | ATGAGGTC | 0.256
155 | CTAGTGGC | -0.0665
156 | AACAGGTA | 0.0818
157 | AATAGGCC | -0.161
158 | AGACAAAC | 0.0468
159 | CGTCGAAC | -0.0518
160 | CTTTAATA | 0.201
161 | ACATGCAG | -0.0347
162 | CTACCGAG | -0.164
163 | ACTGTTTC | -0.021
164 | AGCCCGAC | -0.167
165 | ACCTATCT | -0.113
166 | GACCCCTA | -0.235
167 | GATCGAGC | -0.0261
168 | CCCACGTC | 0.141
169 | GACAAAGC | 0.0196
170 | AATGAGGG | -0.17
171 | CTTGCACA | -0.0381
172 | CGCGGCAG | 0.123
